For 69 compounds, nuclei count results are on record in the supplement of paper PMC8183993.

SMILES strings stand for the structures. Where a name gives a salt, the structure may show the parent alone. ± gives the standard deviation of the averaged measurements. In all, about 3,200 compounds were measured (“nuclei count (viability) relative to DMSO”: median about 99, lowest 2% from about 16 on). The list shows a part of the results.

In the assay the test system is U2OS. In words: nuclei count (viability) relative to DMSO (% of DMSO); higher = more viable cells. As to conditions: 10 µM; 24 h. As for the experimental part: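 Primary image-based screen in U2OS cells: compounds at 10 uM for 24 h, then a 1 h o-propargyl-puromycin (OPP) pulse, click labelling, and high-throughput microscopy. Mean cytoplasmic OPP intensity and nuclei count were normalised to DMSO wells within each plate (DMSO = 100) and averaged over triplicate plates.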
Take `O=C(NCC1CCOCC1)c1cnc(Nc2ccc(Cl)cc2Cl)nc1C(F)(F)F`: the nuclei count came to 97.2.
To `O=C1Nc2ccccc2C2(CCN(CCc3ccc(C(F)(F)F)cc3)CC2)O1` belongs 96.1.
In the case of `CC(N)Cc1cnc[nH]1` (centres undefined) it was 97.3.
Take `S=C=Nc1cccc(C2(N3CCCCC3)CCCCC2)c1` [Metaphit]: the nuclei count amounted to 94.3.
For `O=C1C=CC[C@@H]2[C@H]3CCCN4CCC[C@@H](CN12)[C@@H]34` [Sophocarpine], the nuclei count is 104.
For `CC(=O)O[C@H]1C[C@@H]2CC[C@@H]3[C@H](CC[C@@]4(C)[C@H]3C[C@H]([N+]3(C)CCCCC3)[C@@H]4OC(C)=O)[C@@]2(C)C[C@@H]1[N+]1(C)CCCCC1` [Pancuronium bromide], the nuclei count was 103.
The compound `CC(=O)O[C@H]1C[C@@H]2CC[C@@H]3[C@H](CC[C@@]4(C)[C@H]3C[C@H]([N+]3(C)CCCCC3)[C@@H]4OC(C)=O)[C@@]2(C)C[C@@H]1[N+]1(C)CCCCC1` [Pancuronium (Pavulon)] had a nuclei count of 106.
`O=c1c2ccccc2[se]n1-c1ccccc1` [Ebselen] had a nuclei count of 100 ± 7.
Compound `CCCN(CCC)C1Cc2cc(OC)c(OC)cc2C1` returned a nuclei count of 98.2.
Regarding `NCC(O)c1ccc(O)cc1` (centres undefined) [Octopamine hydrochloride], the nuclei count was found to be 105.
With `CN1CCCCC1Cn1cc(C(=O)c2cc([N+](=O)[O-])ccc2I)c2ccccc21` (centres undefined), the nuclei count came out at 98.4.
Take `O=c1ccc2cc(O[C@@H]3O[C@H](CO)[C@@H](O)[C@H](O)[C@H]3O)c(O)cc2o1` [Aesculin (Esculin)]: the nuclei count is 97.2.
In the case of `Cc1cc(C)cc(C(=O)OC2C[C@H]3CC[C@@H](C2)N3C)c1` (some centres undefined) [Tropanyl-3,5-dimethylbenzoate] it was 108.
In the case of `Oc1ccc2c3c1O[C@H]1c4[nH]c5ccccc5c4C[C@@]4(O)[C@@H](C2)N(CC2CC2)CC[C@]314` [Naltrindole hydrochloride], the nuclei count came to 95.8.
To `CC(NC(C)(C)C)C(=O)c1cccc(Cl)c1` (centres undefined) [Bupropion hydrochloride] belongs 105; to `CC1(C)[C@H](C(=O)O[C@H](C#N)c2cccc(Oc3ccccc3)c2)[C@@H]1C=C(Br)Br` [Deltamethrin], 108.
As for `Cc1onc(O)c1CC(N)C(=O)O` (racemic), the nuclei count came to 83.3.
In the case of `Cc1onc(O)c1CC(N)C(=O)O` (racemic) [(RS)-AMPA hydrobromide] it was 97.3; in that of `NC(=S)N/N=C/c1coc2ccccc2c1=O.[Cl][Cu][Cl]`, 95.8; in that of `CN1CCC2(C)c3cc(O)ccc3N(C)C12` (single isomer, unassigned; (-)) [(-)-Eseroline fumarate salt], 61.2.
Turning to `O=C1NC(=O)c2c1c1c3ccccc3n3c1c1c2c2ccccc2n1[C@H]1CC[C@@H]3O1`, the nuclei count turned out to be 60.9.
With `CC(C)(C)c1cc(C=C(C#N)C#N)cc(Br)c1O`, the nuclei count turned out to be 101 ± 1.6.
In the case of `NC[C@H](CC(=O)O)c1ccc(Cl)cc1` [(R)-baclofen] it was 94.7; in that of `CC(C)[C@]12O[C@H]1[C@@H]1O[C@]13[C@]1(O[C@H]1C[C@H]1C4=C(CC[C@@]13C)C(=O)OC4)[C@@H]2O` [Triptolide], 28.9.
For `O=C1CC[C@@]2(O)[C@H]3Cc4ccc(O)c5c4[C@@]2(CCN3CC2CC2)[C@H]1O5` [Naltrexone hydrochloride dihydrate], the nuclei count was 105.
In turn, `CN[C@@H]1[C@@H](O)[C@@H](O[C@@H]2[C@@H](O)[C@H](O[C@H]3O[C@H](CN)CC[C@H]3N)[C@@H](N)C[C@H]2N)OC[C@]1(C)O.CN[C@@H]1[C@@H](O)[C@@H](O[C@@H]2[C@@H](O)[C@H](O[C@H]3O[C@H]([C@@H](C)N)CC[C@H]3N)[C@@H](N)C[C@H]2N)OC[C@]1(C)O.CN[C@@H]1[C@@H](O)[C@@H](O[C@@H]2[C@@H](O)[C@H](O[C@H]3O[C@H]([C@@H](C)NC)CC[C@H]3N)[C@@H](N)C[C@H]2N)OC[C@]1(C)O` [Gentamicine sulfate] had a nuclei count of 110.
`Cn1c(CCCC(=O)O)nc2cc(N(CCCl)CCCl)ccc21` [Bendamustine HCL] showed a nuclei count of 81.5.
In the case of `CO[C@H]1CC[C@@H](O[C@H]2C[C@H]([C@]3(C)CC[C@]4(C[C@H](O)[C@@H](C)[C@@H]([C@@H](C)/C=C(\C)C(=O)[C@H](C)C[C@H](C)C(=O)O)O4)O3)O[C@]3(O[C@@H]([C@H]4O[C@@](O)(CO)[C@H](C)C[C@@H]4C)C[C@@H]3C)[C@@H]2C)O[C@@H]1C` [Nanchangmycin] it was 59.8; in that of `O[C@H]1[C@H](O)[C@@H](O)CN2CC[C@H](O)[C@H]12` [Castanospermine], 97.3.
For `NCC(CC(=O)O)c1ccc(Cl)cc1` (racemic) [Baclofen (R,S)], the nuclei count worked out at 102.
Consider `N[C@@H]1C[C@H]1c1ccccc1` [Tranylcypromine hydrochloride], for which the nuclei count was found to be 89.7 ± 9.1.
As for `O=C(O)[C@@H]1[C@H](C(=O)O)[C@H]2CC[C@@H]1O2` [Endothall], the nuclei count worked out at 93.5.
`CC(=O)[C@H]1CC[C@H]2[C@@H]3CC[C@H]4C[C@](C)(O)CC[C@]4(C)[C@H]3CC[C@]12C` [Ganaxolone] showed a nuclei count of 97.3.
`CN(C)CCc1ccc(O)cc1` [Hordenine] displayed a nuclei count of 101.
The compound `C/C(=C\c1csc(C)n1)[C@@H]1C[C@@H]2O[C@@H]2CCC[C@H](C)[C@H](O)[C@@H](C)C(=O)C(C)(C)[C@@H](O)CC(=O)O1` [Epothilone A] registered a nuclei count of 43.4.
Turning to `COc1ccc(N(C(=O)Oc2c(C)cccc2C)c2ccnc(Nc3ccc(N4CCN(C)CC4)cc3)n2)c(OC)c1`, the nuclei count was 104.
On to `COC1=C[C@@H]2[C@@H]3Cc4ccc(OC)c(O)c4[C@]2(CCN3C)CC1=O` [Sinomenine (Cucoline)], for which the nuclei count is 101.
As for `CC(C)(O)[C@H]1O[C@H]2CC[C@@]3(C)[C@@](O)(CC[C@H]4Cc5c([nH]c6ccccc56)[C@@]43C)C2=CC1=O` [Paxilline], the nuclei count turned out to be 91.2 ± 11.
Consider `C#C[C@]1(O)CC[C@H]2[C@@H]3CCC4=CC(=O)CCC4=C3C=C[C@@]21CC` [Gestrinone], for which the nuclei count worked out at 94.5.
`O=C(O)C1=CCCN(CCOC(c2ccc(C(F)(F)F)cc2)c2ccc(C(F)(F)F)cc2)C1` [CI 966 hydrochloride] gave a nuclei count of 96.9.
To `CN1[C@@H]2C[C@@H](OC(=O)[C@H](CO)c3ccccc3)C[C@H]1[C@@H]1O[C@@H]12` [Scopolamine hydrochloride] belongs 104.
`CN1[C@@H]2C[C@@H](OC(=O)[C@H](CO)c3ccccc3)C[C@H]1[C@@H]1O[C@@H]12` [Scopolamine hydrobromide] registered a nuclei count of 102.
To `CN1[C@@H]2C[C@@H](OC(=O)[C@H](CO)c3ccccc3)C[C@H]1[C@@H]1O[C@@H]12` [Scopolamine HBr] belongs 99; to `Cc1ncsc1CCCl` [Chlormethiazole hydrochloride], 85.2; to `CCOC(=O)c1cncn1[C@H](C)c1ccccc1` [Etomidate], 94.25 ± 0.25.
To `CN1CCc2cc3c(cc2C1C1OC(=O)c2c1ccc1c2OCO1)OCO3` (single isomer, unassigned; (+)) [(+)-Bicuculline] belongs 100 ± 5.5; to `CC(O)(CS(=O)(=O)c1ccc(F)cc1)C(=O)Nc1ccc(C#N)c(C(F)(F)F)c1` (centres undefined) [Bicalutamide], 103; to `CCN1CCN(C(=O)Cc2ccc(Nc3ncc(F)c(Nc4ccc(C(=O)Nc5ccccc5Cl)cc4)n3)cc2)CC1` [Aurora A Inhibitor I], 51.4.
Consider `CN1C2CCC1CC(OC(c1ccccc1)c1ccc(Cl)cc1)C2` (centres undefined), for which the nuclei count worked out at 83.5.
In turn, `NCC1(CC(=O)O)CCCCC1` [Gabapentin] came in with a nuclei count of 93.6.
Regarding `O=c1cccc2n1C[C@@H]1CNC[C@H]2C1` [(-)-Cytisine], the nuclei count was 99.6.
Take `O=c1cccc2n1C[C@@H]1CNC[C@H]2C1` [Cytisine (Baphitoxine, Sophorine)]: the nuclei count was 85.
`O=[N+]([O-])O[C@H]1CO[C@H]2[C@@H]1OC[C@H]2O[N+](=O)[O-]` [Isosorbide dinitrate] returned a nuclei count of 97.4.
To `Fc1ccc(C(OCCN2CCN(C/C=C/c3ccccc3)CC2)c2ccc(F)cc2)cc1` belongs 97.1.
Compound `C=C1CC[C@@]2(O)[C@H]3Cc4ccc(O)c5c4[C@@]2(CCN3CC2CC2)[C@H]1O5` [Nalmefene hydrochloride] came in with a nuclei count of 97.1.
`CCCCC1(C2CCCC2)Cc2cc(OCCCC(=O)O)c(Cl)c(Cl)c2C1=O` (centres undefined) registered a nuclei count of 102.
Compound `O=C(CCCN1CCC2(CC1)C(=O)NCN2c1ccccc1)c1ccc(F)cc1` [Spiperone] returned a nuclei count of 97.7.
As to `O=C(CCCN1CCC2(CC1)C(=O)NCN2c1ccccc1)c1ccc(F)cc1` [Spiperone hydrochloride], the nuclei count turned out to be 39.1.
Turning to `CC(N)C(O)c1ccccc1` (centres undefined) [Phenylpropanolamine hydrochloride], the nuclei count came to 101.
With `O=c1[nH]oc2c1CCNC2` [THIP Hydrochloride], the nuclei count turned out to be 109.
In turn, `O=c1[nH]oc2c1CCNC2` [THIP hydrochloride] came in with a nuclei count of 104.
With `CN1CC[C@@H]2CN3CCc4cccc(c43)[C@@H]2C1` [SDZ SER 082 fumarate], the nuclei count was found to be 100.
`C[N+]1(C)CCc2cc3c(cc2[C@H]1[C@@H]1OC(=O)c2c1ccc1c2OCO1)OCO3` [(-)-Bicuculline methochloride] registered a nuclei count of 99.6.
In the case of `C[N+]1(C)CCc2cc3c(cc2[C@H]1[C@@H]1OC(=O)c2c1ccc1c2OCO1)OCO3` [(-)-Bicuculline methiodide] it was 90.9; in that of `NC(N)=Nc1ccc2[nH]c3c(c2c1)C[C@@]1(O)[C@H]2Cc4ccc(O)c5c4[C@@]1(CCN2CC1CC1)[C@H]3O5` [GNTI dihydrochloride], 101; in that of `CCOC(=O)c1ncn2c1[C@@H]1CCCN1C(=O)c1cc(OC)ccc1-2`, 102.
In turn, `CC[C@@H](CO)NC(=O)[C@@H]1C=C2c3cccc4[nH]cc(c34)C[C@H]2N(C)C1` [Methylergometrine maleate] registered a nuclei count of 95 ± 13.
For `CCC1(C2=NCCN2)Cc2ccccc2O1` (centres undefined) [Efaroxan hydrochloride], the nuclei count worked out at 105.
As for `CN(C)c1ccc(/C=C2\CCCN=C2c2cccnc2)cc1` [DMAB-anabaseine dihydrochloride], the nuclei count came to 97.5.
